Results: PubChem BioAssay AID588795 (National Center for Advancing Translational Sciences (NCATS), 2011)
About 1,400 (0.36%) of roughly 390,000 compounds were called active. Inconclusive means that the source gave no clear call. Such entries were picked first, then a sample of the others. Calls come from the whole dose curve; as a rule, active = well fitted inhibition curve with a large enough effect; inconclusive = small, poorly fitted or top-dose-only effect; inactive = no such curve, though single readings can be large or run the other way. Potencies of inconclusive entries are doubtful fits and often do not repeat.

The compounds below were run against Flap endonuclease 1 (Homo sapiens) (UniProt P39748) (assay: qHTS Assay for the Inhibitors of Human Flap endonuclease 1 (FEN1).). Conditions: Recombinant FEN1 flap cleavage, fluorescence, 15 min; series mostly up to 114 µM; activity change, negative = inhibition: at the top concentration.
Sequence of UniProt P39748 (P39748 whole entry, looked up): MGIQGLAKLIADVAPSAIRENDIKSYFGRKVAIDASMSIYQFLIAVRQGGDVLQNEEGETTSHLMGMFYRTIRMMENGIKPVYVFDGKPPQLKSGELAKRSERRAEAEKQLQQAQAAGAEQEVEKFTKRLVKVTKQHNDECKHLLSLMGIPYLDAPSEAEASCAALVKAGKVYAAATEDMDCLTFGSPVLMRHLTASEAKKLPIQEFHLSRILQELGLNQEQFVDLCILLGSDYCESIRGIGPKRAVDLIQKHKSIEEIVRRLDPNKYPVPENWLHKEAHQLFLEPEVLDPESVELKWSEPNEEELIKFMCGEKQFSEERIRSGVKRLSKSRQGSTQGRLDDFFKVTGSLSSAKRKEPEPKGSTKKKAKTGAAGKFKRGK
Summary of the method: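 Concentration–response screening of FEN1 (10 nM): 15 min compound preincubation at room temperature, reaction started with 50 nM substrate and read at 0 and 15 min. Corrected, normalized data were fitted by a four-parameter Hill equation.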
% is set by controls: 0 for no effect and ±100 for the full control effect; potency is the fitted concentration of half-maximal effect; tags give direction and shape of the fitted curve.
Note: nearly all actives have a fitted effect of over 65% in size.

| Structure (SMILES) | Potency | activity change, negative = inhibition |
| --- | --- | --- |
| CC(=O)Nc1ccc2cc3ccc(NC(C)=O)cc3nc2c1 | inconclusive: 50.1 µM [inhibitor, partial curve] |  |
| O=C(O)c1[nH]c2ccc([N+](=O)[O-])cc2c1-c1ccccc1 | inconclusive: 31.6 µM [inhibitor, partial curve, poor fit] |  |
| COc1ccc(-c2ccc(=O)n(CC(=O)Nc3ccc4c(c3)OCCO4)n2)cc1 | inconclusive: 79.4 µM [inhibitor, single point] |  |
| CC1Cc2cc(/C(O)=C3/C(=O)C(=O)N(CC4CCCO4)C3c3ccco3)ccc2O1 (stereo unspecified) |  | inactive: -8.27% |
| CCOC(=O)c1sc(NC(=O)CSc2nnc(Cc3ccccc3)o2)c(C#N)c1C | inconclusive: 89.1 µM [inhibitor, single point] |  |
| Cc1ccc(-c2cn3c(n2)sc2cc(C(=O)NC4CCCCC4)ccc23)cc1 |  | inactive: -1.82% |
| CCc1nn2c(=O)cc(COc3ccc(/C=C4\C(=N)N5N=C(C)SC5=NC4=O)cc3)nc2s1 | inconclusive: 100 µM [inhibitor, partial curve, poor fit] |  |
| CC(=O)Nc1cccc(C(=O)/C=C/c2ccc(N(C)C)cc2)c1 | inconclusive: 50.1 µM [inhibitor, partial curve] |  |
| CCc1nc2ccccc2c(C(=O)OCc2nnc(-c3ccccc3)o2)c1C | inconclusive: 56.2 µM [inhibitor, partial curve, poor fit] |  |
| Cc1c(Cl)cccc1N=Cc1ccc([N+](=O)[O-])s1 | active: 14.1 µM |  |
| COc1cccc(C(=O)Nc2ccc3nc(SCC(=O)N4CCc5ccccc54)sc3c2)c1 |  | inactive: -4.19% |
| NCC(=O)Nc1ccc(Cl)cc1C(=O)c1ccc[nH]1 | inconclusive: 15.8 µM [inhibitor, partial curve, poor fit] |  |
| O=c1c(O)c(-c2ccc(O)cc2)oc2cc(O)cc(O)c12 | inconclusive: 50.1 µM [inhibitor, partial curve, poor fit] |  |
| CCOc1ccccc1N1CCN(S(=O)(=O)c2ccc3c4c(cccc24)C(=O)N3)CC1 | inconclusive: 50.1 µM [inhibitor, partial curve] |  |
| COc1ccc(C2=NN(c3ccccc3)C(=O)/C2=C\c2ccc(O)c(OC)c2)cc1 | inconclusive: 17.8 µM [inhibitor, partial curve, poor fit] |  |
| Nc1c(C=C2C=CC(=O)C=C2)c(=O)nc2sc(CC(=O)N3CCCCC3)nn12 |  | inactive: -26.4% |
| CN(C)CCOC(=O)c1ccc2[nH]c3c(c2c1)CSCC3 | active: 50.1 µM |  |
| C=CCNc1nc(Cl)nc(Nc2ccc(OC)cc2)n1 | inconclusive: 89.1 µM [inhibitor, partial curve, poor fit] |  |
| COc1ccc(N(C(=O)c2snc(C(N)=O)c2N)C(C(=O)NC2CCCC2)c2cccs2)cc1OC (stereo unspecified) |  | inactive: 5.98% |
| O=C1CCCC2=C1C1(CCCCC1)N=C(Nc1nc3ccccc3o1)N2 | inconclusive: 56.2 µM [inhibitor, partial curve, poor fit] |  |
| COc1cccc(/C=N/Nc2nnc(C)n2N)c1OCc1ccccc1Cl |  | inactive: -23.5% |

| Structure (SMILES) | Potency | activity change, negative = inhibition |
| --- | --- | --- |
| CCN(C(=O)C(C)N1C(=O)/C(=C/c2ccco2)SC1=S)C1CCS(=O)(=O)C1 (stereo unspecified) | inconclusive: 50.1 µM [inhibitor, partial curve] |  |
| Cc1cc(N)n2ncc(-c3ccc(F)cc3)c2n1 | inconclusive: 89.1 µM [inhibitor, single point] |  |
| Cc1ccc(S(=O)(=O)N2CCCCC2)cc1C(=O)Nc1ccc(S(=O)(=O)Nc2ncccn2)cc1 | inconclusive: 79.4 µM [inhibitor, partial curve, poor fit] |  |
| Cc1c(CCC(=O)NCCCCCC(=O)O)c(=O)oc2cc3occ(-c4ccccc4)c3cc12 | inconclusive: 79.4 µM [inhibitor, partial curve, poor fit] |  |
| CCCCn1c(-c2cccs2)nc2nc3ccccc3nc21 | inconclusive: 50.1 µM [inhibitor, partial curve, poor fit] |  |
| CCC(C)Sc1cccc(-c2nc3cc(C)ccn3c2NCc2ccccc2)c1 (stereo unspecified) | inconclusive: 79.4 µM [inhibitor, partial curve, poor fit] |  |
| O=C1CC(c2ccccc2)=NN1c1ccccc1 |  | inactive: -6.21% |
| O=c1c2sc3ccccc3c2n(Cc2cccc(C(F)(F)F)c2)c(=O)n1Cc1ccc(F)cc1 |  | inactive: 3.15% |
| COc1ccc(OC)c(NC(=O)C2CC(=O)N(CCc3ccc(F)cc3)C2)c1 (stereo unspecified) | inconclusive: 89.1 µM [inhibitor, partial curve] |  |
| Cc1cc(C)c2oc(C(=O)Nc3ccc(S(=O)(=O)Nc4nccc(C)n4)cc3)cc(=O)c2c1 | inconclusive: 39.8 µM [inhibitor, partial curve, poor fit] |  |
| Cc1cc(C)n(Cc2ccc(C(=O)N/N=C/c3ccc(-c4ccc([N+](=O)[O-])cc4)o3)o2)n1 | active: 56.2 µM |  |
| COc1ccc2cc(CO)c3cc(OC)c(OC)cc3c2c1 | inconclusive: 31.6 µM [inhibitor, full curve] |  |
| COc1cc(OC)cc(-c2sc3ccc(OC)cc3c2C#CC2(N)CCCCC2)c1 | inconclusive: 44.7 µM [inhibitor, partial curve, poor fit] |  |
| O=C1/C(=C/c2ccco2)CCc2ccccc21 |  | inactive: -0.363% |
| CCOC(=O)C1=C(N)OC2=C(C(=O)CC(C)(C)C2)C1c1ccoc1 (stereo unspecified) |  | inactive: 9.45% |
| CC(C(=O)N(C)C1CCS(=O)(=O)C1)N1C(=O)/C(=C/c2ccco2)SC1=S (stereo unspecified) | inconclusive: 39.8 µM [inhibitor, partial curve, poor fit] |  |
| CC(C)(C)c1ccc(NC(=O)Nc2ccc(F)cc2)cc1 |  | inactive: 2.8% |
| COc1cccc(NC(=O)c2ccc3nc(Cc4ccccc4)oc3c2)c1 | inconclusive: 56.2 µM [inhibitor, partial curve, poor fit] |  |
| Cc1[nH][nH]c(=O)c1C(c1ccc(-c2ccc(Cl)c(C(=O)O)c2)o1)c1c(C)[nH][nH]c1=O | inconclusive: 14.1 µM [inhibitor, full curve, poor fit] |  |
| c1ccc(C2CC(c3cccs3)=NN2c2ccccc2)cc1 (stereo unspecified) | inconclusive: 89.1 µM [inhibitor, single point] |  |
